This is one part of the list.
Tested on: S. aureus RN4220
Assay: growth inhibition call (relative growth <= 0.2)
Conditions: 50 µM

Growth inhibition call, inactive:
C[C@H](CO)N1C[C@H](C)[C@H](CN(C)Cc2ccncc2)Oc2c(NS(=O)(=O)c3ccccc3)cccc2C1=O, CC(C)NC(=O)Nc1ccc2c(c1)C(=O)N([C@H](C)CO)C[C@H](C)[C@H](CN(C)C(=O)Nc1ccccc1)OCCCC[C@@H](C)O2, C[C@@H]1CN([C@@H](C)CO)C(=O)Cc2cc(NS(=O)(=O)c3cn(C)cn3)ccc2O[C@@H]1CN(C)Cc1ccc(C(=O)O)cc1, COc1ncnc(N)c1OC, C[C@H](CO)N1C[C@H](C)[C@H](CN(C)CC2CCCCC2)Oc2c(NS(=O)(=O)c3cn(C)cn3)cccc2C1=O, C[C@H](CO)N1C[C@H](C)[C@H](CN(C)Cc2ccccc2)OCCCC[C@H](C)Oc2ccc(NC(=O)C3CCCCC3)cc2C1=O, C[C@H](CO)N1C[C@H](C)[C@@H](CN(C)Cc2ccc(-c3ccccc3)cc2)Oc2ccc(NC(=O)C3CC3)cc2C1=O, C[C@@H]1CCCCO[C@H](CN(C)Cc2ccc3c(c2)OCO3)[C@@H](C)CN([C@@H](C)CO)C(=O)c2cc(NC(=O)Nc3ccc(C(F)(F)F)cc3)ccc2O1, COc1ccccc1S(=O)(=O)N[C@@H]1CC[C@H](CCNC(=O)C2CC2)O[C@H]1CO, C[C@@H]1CN([C@H](C)CO)C(=O)c2cc(NC(=O)c3ccccc3)ccc2O[C@@H](C)CCCCO[C@@H]1CN(C)Cc1ccc(Cl)c(Cl)c1, O=C(CN1C(=O)c2cccc3cccc(c23)C1=O)N1CCN(CCN2C(=O)[C@@H]3[C@@H](C2=O)[C@@H]2C=C[C@@H]3C2)CC1, COc1ccc(CN(C)C[C@@H]2Oc3ccc(NS(=O)(=O)c4cn(C)cn4)cc3CC(=O)N([C@@H](C)CO)C[C@@H]2C)cc1, CCCC(=O)Nc1ccc2c(c1)OC[C@@H](C)N(Cc1ccc(-c3ccccn3)cc1)C[C@@H](C)[C@H](OC)CN(C)C2=O, CO[C@H]1CN(C)C(=O)c2cc(NC(=O)CC(F)(F)F)ccc2OC[C@@H](C)N(S(=O)(=O)c2cn(C)cn2)C[C@H]1C, COc1ccc(S(=O)(=O)Nc2ccc3c(c2)C(=O)N([C@H](C)CO)C[C@H](C)[C@H](CN(C)C(=O)CCC(F)(F)F)OCCCC[C@H](C)O3)cc1, C[C@@H]1CN([C@@H](C)CO)C(=O)c2cc(C3=CCCCC3)cnc2O[C@H]1CN(C)C(=O)CN1CCOCC1, Cc1ccc(S(=O)(=O)Nc2cccc3c2O[C@H](CN(C)C(=O)Nc2ccc(C(F)(F)F)cc2)[C@@H](C)CN([C@H](C)CO)C3=O)cc1, COc1ccccc1CNC(=O)C[C@@H]1C[C@@H]2c3cc(NC(=O)c4cccnc4)ccc3O[C@@H]2[C@H](CO)O1, CO[C@H]1CN(C)C(=O)c2ccc(NS(C)(=O)=O)cc2OC[C@@H](C)N(C(=O)c2ccc3c(c2)OCO3)C[C@@H]1C, C[C@@H]1CCCCO[C@H](CN(C)Cc2ccncc2)[C@H](C)CN([C@@H](C)CO)C(=O)c2cc(NC(=O)C3CCCCC3)ccc2O1, COc1ccc(CN(C)C[C@@H]2OCCCC[C@H](C)Oc3ccc(NC(=O)Nc4ccccc4)cc3C(=O)N([C@H](C)CO)C[C@@H]2C)cc1, COc1ccc(S(=O)(=O)Nc2cccc3c2O[C@H](CN(C)S(=O)(=O)c2cn(C)cn2)[C@H](C)CN([C@H](C)CO)C3=O)cc1, C[C@@H]1CN([C@@H](C)CO)C(=O)c2cccc(NC(=O)Nc3ccc(C(F)(F)F)cc3)c2O[C@@H]1CN(C)CC1CCCCC1, O=C(O)c1cn(C2CC2)c2cc(N3CCC(O)(COc4ccc(N5C[C@H](CO)OC5=O)cc4F)CC3)c(F)cc2c1=O, N=C(N)S/C=C\C(=O)O, O=C(CCCCCCC(=O)Nc1ccccc1O)N/N=C/c1cc(Br)c(O)c(Br)c1, N[C@H]1CCN(O)C1=O, Cl.NCCCC(N)(C(=O)O)C(F)F.O (stereo not given), CC(C)NC(=O)N(C)C[C@@H]1Oc2ccc(NC(=O)Cn3cnnn3)cc2CC(=O)N([C@H](C)CO)C[C@H]1C, COc1ccc([C@@H]([C@H](Cc2ccccc2)OC(C)=O)N2C[C@@H](OC(C)=O)[C@H]3C(=NO[C@@H]3c3ccccc3)[C@@H]2Cc2ccccc2)cc1, Cc1noc(C)c1S(=O)(=O)N(C)C[C@@H]1Oc2ccc(NS(=O)(=O)c3ccc(Cl)cc3)cc2C(=O)N([C@@H](C)CO)C[C@@H]1C, CCCN(C)C[C@H]1OCCCC[C@@H](C)Oc2ccc(NS(=O)(=O)c3ccc(Cl)cc3)cc2C(=O)N([C@H](C)CO)C[C@@H]1C, CC(C)C#Cc1ccc2c(c1)O[C@H](CN(C)C(=O)Cc1ccccn1)[C@H](C)CN([C@H](C)CO)S2(=O)=O, C[C@H]1CCCCO[C@@H](CN(C)Cc2ccc(C(F)(F)F)cc2)[C@@H](C)CN([C@@H](C)CO)C(=O)c2cc(NS(=O)(=O)c3ccccc3)ccc2O1, COC(CNC(=O)C1CCN(S(=O)(=O)c2cccc3nsnc23)CC1)OC, Cc1ccc(S(=O)(=O)N(C)C[C@H]2Oc3ccc(NS(=O)(=O)c4cn(C)cn4)cc3C(=O)N([C@@H](C)CO)C[C@@H]2C)cc1, CN(C)CCCNC(=O)C[C@H]1CC[C@@H](NS(=O)(=O)c2ccccc2)[C@@H](CO)O1, O=C(C[C@H]1CC[C@H]2[C@@H](COC[C@H](O)CN2Cc2cccc(C(F)(F)F)c2)O1)NCCc1ccncc1, Cl.Fc1ccc(C2CCNCC2COc2ccc3c(c2)OCO3)cc1 (stereo not given), COCCC(=O)N1CCC2(CC1)COC2
